# Laboratory results: the supplement of paper PMC8728848
# The list shows a part of the results.
# B1: SalT (Orysata sativa) (protein)
# chain: MTLVKIGLWGGNGGSAQDISVPPKKLLGVTIYSSDAIRSIAFNYIGVDGQEYAIGPWGGGEGTSTEIKLGSSEHIKEISGTHGPVYDLADIVTYLKIVTSANNTYEAGVPNGKEFSIPLQDSGHVVGFFGRSGTLIDAIGIYVHPILEQKLISEEDLNSAVDHHHHHH
# Assays:
# Test in all cases: glycan array binding signal (z-score within array); higher = stronger binding
# Details in all cases: glycan notation: IUPAC condensed, linker removed
# [1] = biological target: Gal(b1-3)GlcNAc6S
# Procedure, shortened: (§1)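 Glycan array data were curated from 3228 arrays in the Consortium for Functional Glycomics database and kept only where the protein sequence was available. Glycan names were converted to IUPAC-condensed notation, and columns mapping to the same glycan were averaged. The binding signal is a within-array Z-score, averaged across arrays of the same protein sequence at different concentrations or buffers and across linkers. Negative Z-scores can be read as non-binding.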
# [2] = biological target: Gal(b1-3)[Fuc(a1-4)]GlcNAc
# Procedure, shortened: as §1
# [3] = biological target: Gal(b1-3)[Fuc(a1-4)]GlcNAc(b1-2)Man(a1-3)[Gal(b1-3)[Fuc(a1-4)]GlcNAc(b1-2)Man(a1-6)]Man(b1-4)GlcNAc(b1-4)[Fuc(a1-6)]GlcNAc
# Procedure, shortened: as §1
# [4] = biological target: Gal(b1-3)[Fuc(a1-4)]GlcNAc(b1-3)Gal(b1-3)[Fuc(a1-4)]GlcNAc
# Procedure, shortened: as §1
# [5] = biological target: Gal(b1-3)[Fuc(a1-4)]GlcNAc(b1-3)Gal(b1-4)GlcNAc
# Procedure, shortened: as §1
# [6] = biological target: Gal(b1-3)[Fuc(a1-4)]GlcNAc(b1-3)Gal(b1-4)[Fuc(a1-3)]GlcNAc
# Procedure, shortened: as §1
# [7] = biological target: Gal(b1-3)[Fuc(a1-4)]GlcNAc(b1-6)GalNAc
# Procedure, shortened: as §1
# [8] = biological target: Gal(b1-3)[GlcNAc(b1-6)]GalNAc
# Procedure, shortened: as §1
# [9] = biological target: Gal(b1-3)[Neu5Ac(a2-6)]GalNAc
# Procedure, shortened: as §1
# [10] = biological target: Gal(b1-3)[Neu5Ac(a2-6)]GlcNAc(b1-6)Gal(b1-4)Glc
# Procedure, shortened: as §1
# [11] = biological target: Gal(b1-3)[Neu5Ac(b2-6)]GalNAc
# Procedure, shortened: as §1
# [12] = biological target: Gal(b1-4)Gal
# Procedure, shortened: as §1
# [13] = biological target: Gal(b1-4)GalNAc(a1-3)[Fuc(a1-2)]Gal(b1-4)GlcNAc
# Procedure, shortened: as §1
# [14] = biological target: Gal(b1-4)GalNAc(b1-3)[Fuc(a1-2)]Gal(b1-4)GlcNAc
# Procedure, shortened: as §1
# [15] = biological target: Gal(b1-4)Glc
# Procedure, shortened: as §1
# [16] = biological target: Gal(b1-4)Glc6S
# Procedure, shortened: as §1
# [17] = biological target: Gal(b1-4)GlcNAc
# Procedure, shortened: as §1
# [18] = biological target: Gal(b1-4)GlcNAc(a1-6)Gal(b1-4)GlcNAc
# Procedure, shortened: as §1
# [19] = biological target: Gal(b1-4)GlcNAc(b1-2)Man
# Procedure, shortened: as §1
# [20] = biological target: Gal(b1-4)GlcNAc(b1-2)Man(a1-3)Man(b1-4)GlcNAc(b1-4)GlcNAc
# Procedure, shortened: as §1
# [21] = biological target: Gal(b1-4)GlcNAc(b1-2)Man(a1-3)[Gal(b1-4)GlcNAc(b1-2)Man(a1-6)]Man(b1-4)GlcNAc(b1-4)GlcNAc
# Procedure, shortened: as §1
# [22] = biological target: Gal(b1-4)GlcNAc(b1-2)Man(a1-3)[Gal(b1-4)GlcNAc(b1-2)Man(a1-6)]Man(b1-4)GlcNAc(b1-4)[Fuc(a1-6)]GlcNAc
# Procedure, shortened: as §1
# [23] = biological target: Gal(b1-4)GlcNAc(b1-2)Man(a1-3)[Gal(b1-4)GlcNAc(b1-2)][GlcNAc(b1-4)]Man(b1-4)GlcNAc(b1-4)GlcNAc
# Procedure, shortened: as §1
# [24] = biological target: Gal(b1-4)GlcNAc(b1-2)Man(a1-3)[GlcNAc(b1-2)Man(a1-6)]Man(b1-4)GlcNAc(b1-4)GlcNAc
# Procedure, shortened: as §1
# [25] = biological target: Gal(b1-4)GlcNAc(b1-2)Man(a1-3)[Man(a1-6)]Man(b1-4)GlcNAc(b1-4)GlcNAc
# Procedure, shortened: as §1
# [26] = biological target: Gal(b1-4)GlcNAc(b1-2)Man(a1-6)Man(b1-4)GlcNAc(b1-4)GlcNAc
# Procedure, shortened: as §1
# [27] = biological target: Gal(b1-4)GlcNAc(b1-2)Man(a1-6)[GlcNAc(b1-2)Man(a1-3)]Man(b1-4)GlcNAc(b1-4)GlcNAc
# Procedure, shortened: as §1
# [28] = biological target: Gal(b1-4)GlcNAc(b1-2)Man(a1-6)[Man(a1-3)]Man(b1-4)GlcNAc(b1-4)GlcNAc
# Procedure, shortened: as §1
# [29] = biological target: Gal(b1-4)GlcNAc(b1-2)[Gal(b1-4)GlcNAc(b1-4)]Man(a1-3)[Gal(b1-4)GlcNAc(b1-2)Man(a1-6)]Man(b1-4)GlcNAc(b1-4)GlcNAc
# Procedure, shortened: as §1
# [30] = biological target: Gal(b1-4)GlcNAc(b1-2)[Gal(b1-4)GlcNAc(b1-4)]Man(a1-3)[Gal(b1-4)GlcNAc(b1-2)[Gal(b1-4)GlcNAc(b1-6)]Man(a1-6)]Man(b1-4)GlcNAc(b1-4)GlcNAc
# Procedure, shortened: as §1
# [31] = biological target: Gal(b1-4)GlcNAc(b1-2)[Gal(b1-4)GlcNAc(b1-4)]Man(a1-3)[GlcNAc(b1-4)][Gal(b1-4)GlcNAc(b1-2)Man(a1-6)]Man(b1-4)GlcNAc(b1-4)GlcNAc
# Procedure, shortened: as §1
# [32] = biological target: Gal(b1-4)GlcNAc(b1-2)[Gal(b1-4)GlcNAc(b1-4)]Man(a1-3)[GlcNAc(b1-4)][Gal(b1-4)GlcNAc(b1-2)[Gal(b1-4)GlcNAc(b1-6)]Man(a1-6)]Man(b1-4)GlcNAc(b1-4)GlcNAc
# Procedure, shortened: as §1
# [33] = biological target: Gal(b1-4)GlcNAc(b1-2)[Gal(b1-4)GlcNAc(b1-4)]Man(a1-3)[GlcNAc(b1-4)][Gal(b1-4)GlcNAc(b1-2)[Gal(b1-4)GlcNAc(b1-6)]Man(a1-6)]Man(b1-4)GlcNAc(b1-4)[Fuc(a1-6)]GlcNAc
# Procedure, shortened: as §1
# [34] = biological target: Gal(b1-4)GlcNAc(b1-2)[Gal(b1-4)GlcNAc(b1-6)]Man(a1-6)[Gal(b1-4)GlcNAc(b1-2)Man(a1-3)]Man(b1-4)GlcNAc(b1-4)GlcNAc
# Procedure, shortened: as §1
# [35] = biological target: Gal(b1-4)GlcNAc(b1-2)[Gal(b1-4)GlcNAc(b1-6)]Man(a1-6)[Gal(b1-4)GlcNAc(b1-2)Man(a1-3)]Man(b1-4)GlcNAc(b1-4)[Fuc(a1-6)]GlcNAc
# Procedure, shortened: as §1
# [36] = biological target: Gal(b1-4)GlcNAc(b1-2)[Gal(b1-4)GlcNAc(b1-6)]Man(a1-6)[GlcNAc(b1-4)][Gal(b1-4)GlcNAc(b1-2)Man(a1-3)]Man(b1-4)GlcNAc(b1-4)GlcNAc
# Procedure, shortened: as §1
# [37] = biological target: Gal(b1-4)GlcNAc(b1-3)Gal(b1-3)GlcNAc
# Procedure, shortened: as §1
# [38] = biological target: Gal(b1-4)GlcNAc(b1-3)Gal(b1-4)Glc
# Procedure, shortened: as §1
# [39] = biological target: Gal(b1-4)GlcNAc(b1-3)Gal(b1-4)GlcNAc
# Procedure, shortened: as §1
# [40] = biological target: Gal(b1-4)GlcNAc(b1-3)Gal(b1-4)GlcNAc(b1-3)Gal(b1-4)GlcNAc
# Procedure, shortened: as §1
# [41] = biological target: Gal(b1-4)GlcNAc(b1-3)Gal(b1-4)[Fuc(a1-3)GlcNAc(b1-6)]Gal(b1-4)Glc
# Procedure, shortened: as §1
# [42] = biological target: Gal(b1-4)GlcNAc(b1-3)Gal(b1-4)[Fuc(a1-3)]GlcNAc(b1-3)Gal(b1-4)[Fuc(a1-3)]GlcNAc
# Procedure, shortened: as §1
# [43] = biological target: Gal(b1-4)GlcNAc(b1-3)GalNAc
# Procedure, shortened: as §1
# [44] = biological target: Gal(b1-4)GlcNAc(b1-3)[Gal(b1-4)GlcNAc(b1-6)]Gal(b1-4)GlcNAc
# Procedure, shortened: as §1
# [45] = biological target: Gal(b1-4)GlcNAc(b1-3)[Gal(b1-4)GlcNAc(b1-6)]GalNAc
# Procedure, shortened: as §1
binder,measurement,setting,value
B1,glycan array binding signal (z-score),[1],-0.3
same,glycan array binding signal (z-score),[2],-0.306
same,glycan array binding signal (z-score),[3],0.157
same,glycan array binding signal (z-score),[4],-0.303
same,glycan array binding signal (z-score),[5],-0.309
same,glycan array binding signal (z-score),[6],-0.308
same,glycan array binding signal (z-score),[7],-0.303
same,glycan array binding signal (z-score),[8],-0.308
same,glycan array binding signal (z-score),[9],-0.303
same,glycan array binding signal (z-score),[10],-0.306
same,glycan array binding signal (z-score),[11],-0.307
same,glycan array binding signal (z-score),[12],-0.291
same,glycan array binding signal (z-score),[13],-0.306
same,glycan array binding signal (z-score),[14],-0.31
same,glycan array binding signal (z-score),[15],-0.306
same,glycan array binding signal (z-score),[16],-0.306
same,glycan array binding signal (z-score),[17],-0.307
same,glycan array binding signal (z-score),[18],-0.306
same,glycan array binding signal (z-score),[19],-0.307
same,glycan array binding signal (z-score),[20],3.14
same,glycan array binding signal (z-score),[21],3.29
same,glycan array binding signal (z-score),[22],1.08
same,glycan array binding signal (z-score),[23],0.03
same,glycan array binding signal (z-score),[24],2.65
same,glycan array binding signal (z-score),[25],2.43
same,glycan array binding signal (z-score),[26],-0.297
same,glycan array binding signal (z-score),[27],2.65
same,glycan array binding signal (z-score),[28],4.64
same,glycan array binding signal (z-score),[29],-0.203
same,glycan array binding signal (z-score),[30],-0.118
same,glycan array binding signal (z-score),[31],-0.309
same,glycan array binding signal (z-score),[32],-0.31
same,glycan array binding signal (z-score),[33],-0.303
same,glycan array binding signal (z-score),[34],3.13
same,glycan array binding signal (z-score),[35],0.799
same,glycan array binding signal (z-score),[36],0.028
same,glycan array binding signal (z-score),[37],-0.308
same,glycan array binding signal (z-score),[38],-0.306
same,glycan array binding signal (z-score),[39],-0.307
same,glycan array binding signal (z-score),[40],-0.303
same,glycan array binding signal (z-score),[41],-0.31
same,glycan array binding signal (z-score),[42],-0.308
same,glycan array binding signal (z-score),[43],-0.31
same,glycan array binding signal (z-score),[44],-0.31
same,glycan array binding signal (z-score),[45],-0.306
